Data as given in patent publication US12043670B2, “Anti-BCMA antibody-drug conjugates and methods of use” (Eisai R&D Management Co., Ltd., priority 2020, dated 2024).

B1: AB200-R1H32-R2Vk23 (antibody)
heavy: QVQLVQSGAEVKKPGSSVKVSCKASGGTFSNYWMHWVRQAPGQGLEWMGATYRSHSDTYYNQKFKSRVTITADKSTSTAYMELSSLRSEDTAVYYCARGAIYHGYDVIDNWGQGTLVTVSSASTKGPSVFPLAPSSKSTSGGTAALGCLVKDYFPEPVTVSWNSGALTSGVHTFPAVLQSSGLYSLSSVVTVPSSSLGTQTYICNVNHKPSNTKVDKKVEPKSC
light: DIQMTQSPSSLSASVGDRVTITCRASQSISSYLNWYQQKPGKAPKLLIYATSNLQSGVPSRFSGSGSGTDFTLTISSLQPEDFATYYCQQFRKIPWTFGQGTKLEIKRTVAAPSVFIFPPSDEQLKSGTASVVCLLNNFYPREAKVQWKVDNALQSGNSQESVTEQDSKDSTYSLSSTLTLSKADYEKHKVYACEVTHQGLSSPVTKSFNRGEC
B2: AB200-R1H32-R2Vk30 (antibody)
heavy: QVQLVQSGAEVKKPGSSVKVSCKASGGTFSNYWMHWVRQAPGQGLEWMGATYRSHSDTYYNQKFKSRVTITADKSTSTAYMELSSLRSEDTAVYYCARGAIYHGYDVIDNWGQGTLVTVSSASTKGPSVFPLAPSSKSTSGGTAALGCLVKDYFPEPVTVSWNSGALTSGVHTFPAVLQSSGLYSLSSVVTVPSSSLGTQTYICNVNHKPSNTKVDKKVEPKSC
light: DIQMTQSPSSLSASVGDRVTITCRASQSISSYLNWYQQKPGKAPKLLIYATSNLQIGVPSRFSGSGSGTDFTLTISSLQPEDFATYYCQQYRRIPWTFGQGTKLEIKRTVAAPSVFIFPPSDEQLKSGTASVVCLLNNFYPREAKVQWKVDNALQSGNSQESVTEQDSKDSTYSLSSTLTLSKADYEKHKVYACEVTHQGLSSPVTKSFNRGEC
B3: AB200-R1H32-R2Vk31 (antibody)
heavy: QVQLVQSGAEVKKPGSSVKVSCKASGGTFSNYWMHWVRQAPGQGLEWMGATYRSHSDTYYNQKFKSRVTITADKSTSTAYMELSSLRSEDTAVYYCARGAIYHGYDVIDNWGQGTLVTVSSASTKGPSVFPLAPSSKSTSGGTAALGCLVKDYFPEPVTVSWNSGALTSGVHTFPAVLQSSGLYSLSSVVTVPSSSLGTQTYICNVNHKPSNTKVDKKVEPKSC
light: DIQMTQSPSSLSASVGDRVTITCRASQSISSYLNWYQQKPGKAPKLLIYATSNLQIGVPSRFSGSGSGTDFTLTISSLQPEDFATYYCQQFRRLPWTFGQGTKLEIKRTVAAPSVFIFPPSDEQLKSGTASVVCLLNNFYPREAKVQWKVDNALQSGNSQESVTEQDSKDSTYSLSSTLTLSKADYEKHKVYACEVTHQGLSSPVTKSFNRGEC
B4: AB200-R1H32-R2Vk1 (antibody)
heavy: QVQLVQSGAEVKKPGSSVKVSCKASGGTFSNYWMHWVRQAPGQGLEWMGATYRSHSDTYYNQKFKSRVTITADKSTSTAYMELSSLRSEDTAVYYCARGAIYHGYDVIDNWGQGTLVTVSSASTKGPSVFPLAPSSKSTSGGTAALGCLVKDYFPEPVTVSWNSGALTSGVHTFPAVLQSSGLYSLSSVVTVPSSSLGTQTYICNVNHKPSNTKVDKKVEPKSC
light: DIQMTQSPSSLSASVGDRVTITCRASQSISSYLNWYQQKPGKAPKLLIYAASSLQSGVPSRFSGSGSGTDFTLTISSLQPEDFATYYCQQFRKLPWSFGQGTKLEIKRTVAAPSVFIFPPSDEQLKSGTASVVCLLNNFYPREAKVQWKVDNALQSGNSQESVTEQDSKDSTYSLSSTLTLSKADYEKHKVYACEVTHQGLSSPVTKSFNRGEC
B5: AB200-R1H32-R2Vk26 (antibody)
heavy: QVQLVQSGAEVKKPGSSVKVSCKASGGTFSNYWMHWVRQAPGQGLEWMGATYRSHSDTYYNQKFKSRVTITADKSTSTAYMELSSLRSEDTAVYYCARGAIYHGYDVIDNWGQGTLVTVSSASTKGPSVFPLAPSSKSTSGGTAALGCLVKDYFPEPVTVSWNSGALTSGVHTFPAVLQSSGLYSLSSVVTVPSSSLGTQTYICNVNHKPSNTKVDKKVEPKSC
light: DIQMTQSPSSLSASVGDRVTITCRASQSISSYLNWYQQKPGKAPKLLIYATSNIQSGVPSRFSGSGSGTDFTLTISSLQPEDFATYYCQQFRRLPWTFGQGTKLEIKRTVAAPSVFIFPPSDEQLKSGTASVVCLLNNFYPREAKVQWKVDNALQSGNSQESVTEQDSKDSTYSLSSTLTLSKADYEKHKVYACEVTHQGLSSPVTKSFNRGEC
B6: AB200-R1H32-R2Vk34 (antibody)
heavy: QVQLVQSGAEVKKPGSSVKVSCKASGGTFSNYWMHWVRQAPGQGLEWMGATYRSHSDTYYNQKFKSRVTITADKSTSTAYMELSSLRSEDTAVYYCARGAIYHGYDVIDNWGQGTLVTVSSASTKGPSVFPLAPSSKSTSGGTAALGCLVKDYFPEPVTVSWNSGALTSGVHTFPAVLQSSGLYSLSSVVTVPSSSLGTQTYICNVNHKPSNTKVDKKVEPKSC
light: DIQMTQSPSSLSASVGDRVTITCRASQSISSYINWYQQKPGKAPKLLIYATSNLQSGVPSRFSGSGSGTDFTLTISSLQPEDFATYYCQQYRRLPWSFGQGTKLEIKRTVAAPSVFIFPPSDEQLKSGTASVVCLLNNFYPREAKVQWKVDNALQSGNSQESVTEQDSKDSTYSLSSTLTLSKADYEKHKVYACEVTHQGLSSPVTKSFNRGEC
B7: AB200-R1H32-R2Vk35 (antibody)
heavy: QVQLVQSGAEVKKPGSSVKVSCKASGGTFSNYWMHWVRQAPGQGLEWMGATYRSHSDTYYNQKFKSRVTITADKSTSTAYMELSSLRSEDTAVYYCARGAIYHGYDVIDNWGQGTLVTVSSASTKGPSVFPLAPSSKSTSGGTAALGCLVKDYFPEPVTVSWNSGALTSGVHTFPAVLQSSGLYSLSSVVTVPSSSLGTQTYICNVNHKPSNTKVDKKVEPKSC
light: DIQMTQSPSSLSASVGDRVTITCRASQSISSYINWYQQKPGKAPKLLIYATSNLQSGVPSRFSGSGSGTDFTLTISSLQPEDFATYYCQQYRRIPWTFGQGTKLEIKRTVAAPSVFIFPPSDEQLKSGTASVVCLLNNFYPREAKVQWKVDNALQSGNSQESVTEQDSKDSTYSLSSTLTLSKADYEKHKVYACEVTHQGLSSPVTKSFNRGEC
B8: AB200-R1H32-R2Vk29 (antibody)
heavy: QVQLVQSGAEVKKPGSSVKVSCKASGGTFSNYWMHWVRQAPGQGLEWMGATYRSHSDTYYNQKFKSRVTITADKSTSTAYMELSSLRSEDTAVYYCARGAIYHGYDVIDNWGQGTLVTVSSASTKGPSVFPLAPSSKSTSGGTAALGCLVKDYFPEPVTVSWNSGALTSGVHTFPAVLQSSGLYSLSSVVTVPSSSLGTQTYICNVNHKPSNTKVDKKVEPKSC
light: DIQMTQSPSSLSASVGDRVTITCRASQSISSYLNWYQQKPGKAPKLLIYATSNLQIGVPSRFSGSGSGTDFTLTISSLQPEDFATYYCQQYRRLPWSFGQGTKLEIKRTVAAPSVFIFPPSDEQLKSGTASVVCLLNNFYPREAKVQWKVDNALQSGNSQESVTEQDSKDSTYSLSSTLTLSKADYEKHKVYACEVTHQGLSSPVTKSFNRGEC
B9: AB200-R1H32-R2Vk24 (antibody)
heavy: QVQLVQSGAEVKKPGSSVKVSCKASGGTFSNYWMHWVRQAPGQGLEWMGATYRSHSDTYYNQKFKSRVTITADKSTSTAYMELSSLRSEDTAVYYCARGAIYHGYDVIDNWGQGTLVTVSSASTKGPSVFPLAPSSKSTSGGTAALGCLVKDYFPEPVTVSWNSGALTSGVHTFPAVLQSSGLYSLSSVVTVPSSSLGTQTYICNVNHKPSNTKVDKKVEPKSC
light: DIQMTQSPSSLSASVGDRVTITCRASQSISSYLNWYQQKPGKAPKLLIYATSNIQSGVPSRFSGSGSGTDFTLTISSLQPEDFATYYCQQYRRLPWSFGQGTKLEIKRTVAAPSVFIFPPSDEQLKSGTASVVCLLNNFYPREAKVQWKVDNALQSGNSQESVTEQDSKDSTYSLSSTLTLSKADYEKHKVYACEVTHQGLSSPVTKSFNRGEC
B10: AB200-R1H32-R2Vk32 (antibody)
heavy: QVQLVQSGAEVKKPGSSVKVSCKASGGTFSNYWMHWVRQAPGQGLEWMGATYRSHSDTYYNQKFKSRVTITADKSTSTAYMELSSLRSEDTAVYYCARGAIYHGYDVIDNWGQGTLVTVSSASTKGPSVFPLAPSSKSTSGGTAALGCLVKDYFPEPVTVSWNSGALTSGVHTFPAVLQSSGLYSLSSVVTVPSSSLGTQTYICNVNHKPSNTKVDKKVEPKSC
light: DIQMTQSPSSLSASVGDRVTITCRASQSISSYLNWYQQKPGKAPKLLIYATSNLQIGVPSRFSGSGSGTDFTLTISSLQPEDFATYYCQQYRKIPWSFGQGTKLEIKRTVAAPSVFIFPPSDEQLKSGTASVVCLLNNFYPREAKVQWKVDNALQSGNSQESVTEQDSKDSTYSLSSTLTLSKADYEKHKVYACEVTHQGLSSPVTKSFNRGEC
B11: AB200-R1H32-R2Vk25 (antibody)
heavy: QVQLVQSGAEVKKPGSSVKVSCKASGGTFSNYWMHWVRQAPGQGLEWMGATYRSHSDTYYNQKFKSRVTITADKSTSTAYMELSSLRSEDTAVYYCARGAIYHGYDVIDNWGQGTLVTVSSASTKGPSVFPLAPSSKSTSGGTAALGCLVKDYFPEPVTVSWNSGALTSGVHTFPAVLQSSGLYSLSSVVTVPSSSLGTQTYICNVNHKPSNTKVDKKVEPKSC
light: DIQMTQSPSSLSASVGDRVTITCRASQSISSYLNWYQQKPGKAPKLLIYATSNIQSGVPSRFSGSGSGTDFTLTISSLQPEDFATYYCQQYRRIPWTFGQGTKLEIKRTVAAPSVFIFPPSDEQLKSGTASVVCLLNNFYPREAKVQWKVDNALQSGNSQESVTEQDSKDSTYSLSSTLTLSKADYEKHKVYACEVTHQGLSSPVTKSFNRGEC
B12: AB200-R1H32-R2Vk33 (antibody)
heavy: QVQLVQSGAEVKKPGSSVKVSCKASGGTFSNYWMHWVRQAPGQGLEWMGATYRSHSDTYYNQKFKSRVTITADKSTSTAYMELSSLRSEDTAVYYCARGAIYHGYDVIDNWGQGTLVTVSSASTKGPSVFPLAPSSKSTSGGTAALGCLVKDYFPEPVTVSWNSGALTSGVHTFPAVLQSSGLYSLSSVVTVPSSSLGTQTYICNVNHKPSNTKVDKKVEPKSC
light: DIQMTQSPSSLSASVGDRVTITCRASQSISSYLNWYQQKPGKAPKLLIYATSNLQIGVPSRFSGSGSGTDFTLTISSLQPEDFATYYCQQFRKIPWTFGQGTKLEIKRTVAAPSVFIFPPSDEQLKSGTASVVCLLNNFYPREAKVQWKVDNALQSGNSQESVTEQDSKDSTYSLSSTLTLSKADYEKHKVYACEVTHQGLSSPVTKSFNRGEC

assay: ThermoFluor thermostability (Tm); type: physicochemical; settings: Fab fragment; light chain clone paired with heavy chain AB200_R1_VH32

Row | Molecule | Tm
1 | B1 | 80.935 °C
2 | B2 | 78.131 °C
3 | B3 | 81.248 °C
4 | B4 | 79.956 °C
5 | B5 | 80.637 °C
6 | B6 | 76.682 °C
7 | B7 | 77.177 °C
8 | B8 | 77.447 °C
9 | B9 | 77.417 °C
10 | B10 | 77.189 °C
11 | B11 | 77.737 °C
12 | B12 | 81.061 °C
